# In the supplement of paper PMC3334620:
# Over roughly 33,000 sequences, “E-score (-0.5 to 0.5)” has its median near -0.036; the highest 2% begin near 0.37. Some of the results follow.
# Biological target: T1, Yer064c (UniProt P40041)
# T1 sequence: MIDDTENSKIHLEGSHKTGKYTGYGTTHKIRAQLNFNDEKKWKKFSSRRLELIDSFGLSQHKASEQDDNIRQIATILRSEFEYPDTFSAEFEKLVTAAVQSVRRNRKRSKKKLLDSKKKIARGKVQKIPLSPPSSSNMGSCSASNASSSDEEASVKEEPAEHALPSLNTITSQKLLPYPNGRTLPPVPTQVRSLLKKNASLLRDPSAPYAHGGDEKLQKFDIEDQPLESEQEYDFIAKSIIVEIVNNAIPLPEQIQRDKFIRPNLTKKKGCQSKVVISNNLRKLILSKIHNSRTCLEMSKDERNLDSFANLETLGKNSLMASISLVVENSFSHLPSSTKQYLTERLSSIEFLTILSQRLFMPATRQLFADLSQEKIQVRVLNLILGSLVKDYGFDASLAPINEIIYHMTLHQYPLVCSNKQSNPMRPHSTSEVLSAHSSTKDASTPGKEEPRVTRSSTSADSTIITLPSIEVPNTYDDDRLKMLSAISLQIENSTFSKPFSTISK
# Assay: PBM E-score (8-mer binding enrichment) (E-score (-0.5 to 0.5)); higher = stronger / more preferred TF binding; most listed sequences are background and not binding sites
# Settings: protein concentration: 200 nM; construct: GST-full length
# In short: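 Each ungapped eight-base word and its reverse complement, pooled, received an E-score from the Universal PBM Analysis Suite. Underlying scans, normalised with masliner, recorded fluorescent anti-GST bound to GST-tagged yeast transcription factors. These were applied at about 100-200 nM to universal all-10-mer Agilent arrays double-stranded by primer extension.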
row,Sequence,PBM E-score
1,ACCACGTC,-0.183
2,ATGTTGAG,0.109
3,AACTTTGG,-0.0438
4,ACCACATC,0.0593
5,GCAATTCC,-0.137
6,AACAGGTG,-0.107
7,CCAAATCG,-0.0338
8,CCTCAGAC,0.0131
9,ACAATACC,-0.0454
10,GGGGTACA,-0.0824
11,AAAGATAT,0.0952
12,ACCTAATC,0.26
13,CCAGATTC,-0.245
14,CACGCCCG,-0.108
15,TCGCAGCA,0.166
16,GAATGCCC,-0.228
17,ATGTGGAG,0.0652
18,GAAACATC,-0.048
19,ATTGCGCG,0.0888
20,ATCATTTA,0.327
21,GGAAGCAA,-0.241
22,GACACGGC,-0.0491
23,CATAAGGC,-0.0976
24,AATACAGT,0.16
25,ACATACAA,0.0536

row,Sequence,PBM E-score
1,GACCTGCA,-0.00059
2,AAGTTTAA,-0.0209
3,CGAACGTC,-0.304
4,AAAGGGTT,0.00826
5,CTCACGTA,0.0537
6,CACTCGGG,-0.171
7,CCCCAGCG,-0.186
8,TACCCCAA,-0.0991
9,AAACCCTG,-0.0408
10,AACGAGAC,0.0315
11,CATACAAA,0.0211
12,AGGTGCTG,-0.342
13,AAAATTAG,0.0284
14,CGACAATA,0.0752
15,AGATTGCC,-0.163
16,CATCCGTC,-0.0231
17,GTGATACA,0.158
18,TCGCATAA,0.141
19,ATTAGCCC,-0.0976
20,ATGCCTGA,0.13
21,GTCCTTCA,0.0805
22,CTCCCAAG,0.0875
23,ACGACCGG,-0.0792
24,AAACTGAA,0.0322
25,ATTATGTG,0.0418

row,Sequence,PBM E-score
1,AAGGGTTC,-0.0643
2,ACTTATTG,0.0636
3,ACTTCGCC,0.0193
4,ATGTCGTC,-0.203
5,CCACGATA,-0.12
6,CCTTTACA,-0.019
7,GGGCCTAA,-0.173
8,CGAGTTCA,0.143
9,AAGGATAC,-0.0897
10,ACCTCGTG,-0.157
11,CTCTAATA,0.0638
12,AACAGCCA,0.0641
13,AATGACCT,0.0594
14,ATTGGAAC,0.0813
15,CTCTGTTA,-0.00473
16,CCATGGAA,0.063
17,GTGTGGAA,-0.228
18,AGGTGATG,-0.248
19,GAAAGGAA,-0.0158
20,TAGTATCA,0.144
21,CTACATCA,0.0958
22,GCACTGTA,-0.266
23,CTGACCAG,-0.0138
24,AGCGAGAG,0.162
25,ATAGACGG,-0.101

row,Sequence,PBM E-score
1,AGTAGAGG,-0.282
2,AGTTACGC,-0.173
3,GCCACGAC,0.0674
4,TAACTGTA,0.0241
5,AAAGACAT,-0.156
6,TACAAATA,0.116
7,CGACCATA,-0.0113
8,ATACGTCG,-0.179
9,AGCCCGCT,-0.189
10,AGACTGAG,0.246
11,GGTATTAA,0.119
12,AAAGTTAC,0.0933
13,AGGGGCAT,-0.188
14,CGGACCAC,-0.206
15,CATTTGTA,0.116
16,CGAACTAA,0.0257
17,ACGGACTG,0.113
18,CGCCTGCA,-0.136
19,GGAAATCC,-0.253
20,GACGACGA,0.00788
21,AAAAACCA,0.144
22,CATGTGAG,0.16
23,GCGATAAC,-0.135
24,CCGTATGC,-0.167
25,AACCTAAG,-0.141

row,Sequence,PBM E-score
1,CAGAAGGA,-0.151
2,GCGCGACC,-0.122
3,GTCCATGA,0.174
4,AACAGATG,-0.043
5,CAGTTAAA,0.049
6,AGCCCTCG,-0.0897
7,TTCTTAAA,-0.013
8,AAACAAAA,-0.0535
9,TACCTAGA,0.00516
10,CCCGCAAA,-0.0773
11,AACTAGGG,-0.172
12,ACAAAAAA,0.143
13,CTCGCCTA,-0.0213
14,CACTGTCA,-0.0833
15,CGCGAGAA,-0.0631
16,CAGGAAAA,-0.194
17,AGCCTCAT,-0.0884
18,ATCTCATC,0.0658
19,AAGGACTT,0.0394
20,CATGGTTA,0.273
21,AAACTCTC,-0.172
22,CGAACCCA,-0.147
23,AGTGTGAG,0.211
24,CTGTACGA,0.0227
25,CGCCACCG,-0.162

row,Sequence,PBM E-score
1,CAAATCCA,-0.00143
2,ATTGGCGA,0.0225
3,GTTTAGGA,-0.219
4,AAGGGTCT,-0.276
5,CTTGGATA,0.0191
6,ACCAGTAG,0.0136
7,AATCACCT,0.438
8,AGAGCGGA,-0.0749
9,AGGACGTC,-0.127
10,AGCAGAGC,-0.137
11,AGCATCTC,-0.169
12,CCTCTAAA,-0.0503
13,ACAATGCC,-0.27
14,ATAAAGGG,-0.14
15,GCCTTGCA,-0.187
16,GCACAAAA,0.0474
17,GACTGTAC,0.205
18,CTCGCAAA,0.0465
19,GTCCCTAA,-0.137
20,ACCCTCTC,-0.189
21,CACCATCG,-0.191
22,CCGATTCG,0.174
23,ACGGTCAA,0.00367
24,CCTGGGAA,-0.0645
25,ATAACCCG,-0.0584

row,Sequence,PBM E-score
1,AACGATAA,0.0946
2,CATTACGA,-0.0452
3,CGTCATCC,-0.131
4,AAAGGATC,-0.13
5,CCTGATCA,0.0132
6,CACTCCTA,-0.0701
7,GGGTACTA,0.141
8,AACGTTAG,-0.0386
9,TCCGCACA,-0.0533
10,ATAAAAAA,0.112
11,CGTGGCGA,-0.16
12,CGGTTCAC,-0.0311
13,CTAAATTC,0.101
14,AAGACGTA,0.00511
15,AAGCGGAT,-0.286
16,GACTAAGA,0.444
17,ATGAGGTA,0.0789
18,ATCAGTTA,0.24
19,CTTTTCTA,-0.0532
20,ACGATGAT,0.286
21,AGGTGGAT,-0.0934
22,CTTCTAAA,0.00304
